PubChem BioAssay AID1963576 (National Center for Advancing Translational Sciences (NCATS), 2024)
About 60 (0.1%) of roughly 46,000 compounds were called active. Roughly 3% stayed inconclusive and do not appear here. The call rests on the fitted dose curve; in most records, active means well fitted inhibition curve with a large enough effect; inconclusive means small, poorly fitted or top-dose-only effect; inactive means no such curve, though single readings can be large or run the other way. The list shows a part of the results.

Assay: Primary qHTS assay for Inhibitors of ovarian cancer metastasis using an organotypic tumor microenvironment (TME) model. Further: nearly all actives have a fitted effect of over 65% in size.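 On activity change, negative = inhibition: plate controls were DMSO wells for no effect and tomatine positive control wells for full effect.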
Settings: SKOV3ip1-GFP adhesion/invasion on 3D omental model, fluorescence; series mostly up to 45.8 µM; activity change, negative = inhibition: at the top concentration
Method in brief: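 qHTS, 4-pt dose (0.36-46 umol/L); SKOV3ip1-GFP, 1,200 cells/well, no FBS; primary omental fibroblast/mesothelial co-culture 48 h pre-grown; 2 h RT + 16 h 37 C; PBS wash, 4% PFA; GFP count 488/509 nm.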

outcome, inactive:
CCOC(=O)c1c(C)[nH]c(C)c1S(=O)(=O)N1CCCC(C(=O)Nc2ccc(OC)c(Cl)c2)C1 (stereo not given)
Cc1cccc(N2CCN(C(=O)C3CCN(S(=O)(=O)c4cccs4)CC3)CC2)c1C
O=C(Cn1cnc(S(=O)(=O)N2CCCC2)c1)Nc1ccc(OC(F)(F)F)cc1
COc1cccc(Cn2c(=O)n(-c3ccc(C)c(F)c3)c(=O)c3sc4ccccc4c32)c1
COc1ccc(N2CCN(C(=O)c3cc(S(=O)(=O)N4CCCCCC4)cn3C)CC2)cc1
Cc1ccc2oc(C(=O)N(Cc3cccc(F)c3)C3CCS(=O)(=O)C3)c(C)c2c1 (stereo not given)
Cc1ccc(N(CC(C)C)S(=O)(=O)c2nnc(NC(=O)c3ccco3)s2)cc1
O=C(COC(=O)C(Cc1c[nH]c2ccccc12)NC(=O)c1ccc(Br)cc1)c1ccc(Cl)cc1 (stereo not given)
COc1cccc(OC)c1C(=O)Nc1nnc(C)s1
CCC(=O)N1CCc2cc(S(=O)(=O)CCC(=O)Nc3ccc(Cl)c(C(F)(F)F)c3)ccc21
COc1ccccc1CN1COc2ccc3c(C)cc(=O)oc3c2C1
Cc1ccc(NC(=O)Cn2c(=O)oc3ccccc32)cc1Cl
COc1ccc(C(=O)c2oc3ccccc3c2NC(=O)c2ccc(F)cc2)cc1
CCc1nonc1NC(=O)c1oc2cc(C)c(Cl)cc2c1C
Cc1ccc(Nc2nnc(-c3ccc(C)c(S(=O)(=O)N4CCCCC4)c3)c3ccccc23)cc1
COc1ccc(C2C(=O)N(C3CCCCCC3)CC(=O)N2CCc2ccccc2)cc1 (stereo not given)
Cc1ccc(C)c(NC(=O)CCCN2C(=O)COc3ccc(C)cc32)c1
Cc1cc(C)cc(NC(=O)CSc2nnc(COc3ccccc3Cl)o2)c1
CCOC(=O)C1CCN(C(=O)CSc2n[nH]c(-c3ccccc3Cl)n2)CC1
CC1CCN(S(=O)(=O)c2ccc3ncn(CC(=O)Nc4ccccc4C(F)(F)F)c(=O)c3c2)CC1
CCOC(=O)CC(NC(=O)Cn1nnc(-c2ccc(C(F)(F)F)cc2)n1)c1ccccc1Cl (stereo not given)
Cc1ccc(NC(=O)Cn2c(=O)n(-c3ccc(C)cc3)c(=O)c3ccc(C(=O)NCc4ccccc4Cl)cc32)cc1
Cc1c(C)n(Cc2ccc(F)cc2)c2ccc(C(=O)N3CCN(c4ccc(Cl)cc4)CC3)cc12
Cc1cn2c(=O)cc(COc3cc(C)c(Cl)c(C)c3)nc2s1
CCC(C)NC(=O)Cn1c(=O)n(CCCC(=O)NCc2ccc(C)cc2)c(=O)c2ccccc21 (stereo not given)
Cc1cccc(CNC(=O)Cc2csc3ccccc23)c1

Activity change, negative = inhibition, inactive:
O=C(Cn1ncc2c3ccccc3n(Cc3ccccc3F)c2c1=O)NCCc1ccc(Cl)cc1 17.9%
COc1cc(OC2CCN(C)CC2)ccc1Nc1ncc2c(n1)n(C1CCCC1)c(=O)n2C 18%
COc1ccc(CN2COc3ccc4c(-c5ccccc5)cc(=O)oc4c3C2)cc1 7.63%
COc1ccc(OC)c(NC(=O)Cn2cnc3c(oc4ccccc43)c2=O)c1 1.68%
Cc1ccccc1Nc1nnc(-c2ccc(C)c(S(=O)(=O)N3CCOCC3)c2)c2ccccc12 15.1%
CN1CCN(c2ncc(-c3cc(Cl)cc(Cl)c3Cl)c(N)n2)CC1 3.27%
CCc1ccc(NC(=O)c2cc3sc(Cl)cc3n2C)cc1 2.61%
CC1=C(C(=O)Nc2ccc(C)cc2C)C(c2ccc(Cl)cc2)n2nc(C(=O)OC(C)C)nc2N1 (stereo not given) 4.62%
CC(C)CC(=O)NCc1nc2cccnc2n1Cc1ccccc1 12.7%
CSc1cccc(-c2nnc(NC(=O)c3ccc4c(c3)OCCO4)o2)c1 1.3%
CCOc1ccc(NC(=O)C2CCN(S(=O)(=O)c3cc(-c4noc(C)n4)ccc3C)CC2)cc1 2.65%
CCOC(=O)c1cc(-c2ccccc2)n(CC(=O)Nc2ccc(OC)cc2OC)c1C 9.29%
O=C(CCc1cn(Cc2ccccc2F)c2ccccc12)NCc1ccc(Cl)cc1 18.2%
CCOC(=O)c1nc(Nc2ccc(C(=O)OCC(C)C)cc2)c2ccccc2n1 -0.828%
Cc1ccccc1CNC(=O)c1ccc(Cn2c(SCc3cccc(F)c3)nc3cccnc32)cc1 2.15%
COc1ccc(-c2ccc(NS(=O)(=O)c3cccc(Cl)c3)cc2)nn1 -1.88%
O=C(NCc1ccccc1Cl)C1CCC(CNS(=O)(=O)c2ccc(Cl)cc2)CC1 (stereo not given) 8.7%
COc1cccc(NC(=O)N2CCC(n3c(C)nc4cccnc43)CC2)c1 2.96%
COc1ccc(CNC(=O)C2CCN(Cc3nc(-c4ccc(OC)c(OC)c4)oc3C)CC2)cc1 1.93%
Cc1ccc(-c2cc(C(F)(F)F)n3nc(-c4ccc(Cl)cc4)cc3n2)cc1 -3.5%
CCCCN(CC)CCNC(=O)c1cn(CCOC)c(=O)c2c1c1ccccc1n2C 5.81%
CCOc1ccc(C(=O)c2cn(Cc3ccccc3OC)c3cc4c(cc3c2=O)OCCO4)cc1 -4.44%
COc1ccccc1N1CCN(C(=O)c2sc3nc4n(c(=O)c3c2C)CCC4)CC1 7.1%
CCOC(=O)c1ccc(NC(=O)CSc2ccc(-c3sc(C)nc3C)nn2)cc1 0.355%
O=C(NC1CC(=O)N(c2cccc(F)c2)C1)c1ccc(S(=O)(=O)N2CCOCC2)cc1 (stereo not given) 9.47%
CCOC(=O)c1ccc(NC(=O)c2cn(-c3ccccc3)nc2-c2ccc(Br)cc2)cc1 -5.02%
COc1ccc(Cn2ccc3nc(C)c(C(=O)N4CCN(c5ccccc5)CC4)cc3c2=O)cc1 7.63%
O=C(c1cn(CCOc2ccccc2F)c2ccccc12)C1CCCCC1 0.0919%
Cc1ccc(Nc2sc(C(=O)c3ccccc3)c(N)c2C(=O)NC(C)C)cc1 -12.8%
Cc1cccc(Cn2cc(C(=O)c3ccccc3)c(=O)c3cc4c(cc32)OCO4)c1 5.06%
Cc1nc2ccn(Cc3cccs3)c(=O)c2cc1C(=O)NCc1ccccc1 -3.68%
COc1ccc(NC(=O)CSc2oc(-c3cccs3)nc2S(=O)(=O)c2ccc(Br)cc2)c(OC)c1 1.78%
CCOc1ccc2c(c1)[C@@H]1C=CC[C@@H]1[C@H](c1ccccc1Cl)N2 -8.69%
Cc1ccc(CCNC(=O)CN2C(=O)COc3ccc(S(=O)(=O)N4CCCCC4)cc32)cc1 24.3%
O=C(NCCc1ccccc1)c1ccc2c(c1)N(Cc1ccccc1)C(=O)c1ccccc1S2=O (stereo not given) -13.3%
Cc1cccc(-c2nc3c(cnn3-c3ccccc3)c(=O)n2-c2cccc(Cl)c2)c1 7.11%
CC(C)(C)OC(=O)N1CCC(c2c(C(=O)Nc3ccc4c(c3)OCCO4)cnn2-c2ccc(F)cc2)CC1 -14.4%
Cc1ccc(CNC(C)c2ccccc2)s1 (stereo not given) 39.2%
Cn1cnc2c(=O)oc3ccc(S(=O)(=O)N4CCN(c5ccccc5)CC4)cc3c21 -7.29%
CC(C)(C)OC(=O)N1CCC(c2c(C(=O)Nc3cccc(C(F)(F)F)c3)cnn2-c2ccc(F)cc2F)CC1 13.4%
CCN(CC)S(=O)(=O)c1ccc2c(c1)c(=O)c(C(=O)N(C)Cc1ccccc1)cn2C -5.93%
CN(C)c1ccc(CNC(=O)c2cc3ccccn3n2)cc1 14.6%
CN(C)c1ccc(C(CNC(=O)Cc2ccc(Cl)cc2)N2CCOCC2)cc1 (stereo not given) 7.34%
O=C1CN(C(=O)c2ccc(Cl)cc2Cl)C(c2ccc(F)cc2)c2cc(F)ccc2N1 (stereo not given) 3.8%
Cc1cc(OCC(=O)Nc2cnn(CCCC(=O)O)c2)ccc1Cl 2.03%
Cc1nn(-c2ccccc2)c(-n2cccc2)c1C(=O)NCc1ccccc1Cl 18.9%
COc1ccc(C)cc1NC(=O)c1cc2c(s1)-c1ccccc1SC2 7.96%
CC(=O)Nc1cc(C(=O)NCc2ccc(F)cc2)ccc1Sc1ccc(C)cc1 -4.92%
Cc1ccc(S(=O)(=O)c2nc(-c3ccco3)oc2SC(C)C)cc1 4.6%
COc1ccc(CCNC(=O)Cc2c(C)c3c(cc(C)c4c(C)c(C)oc43)oc2=O)cc1OC -4.97%
O=C(NCc1cccs1)c1nn(-c2ccccc2)nc1CO -0.98%
CCOc1ccc(NC(=O)CSc2cc(C)c3ccccc3n2)cc1 -1.42%
CCCn1c2ccccc2c2cnn(CC(=O)Nc3cccc(C(=O)OCC)c3)c(=O)c21 -0.919%
CCOc1ccc(CNC(=O)CN2C(=O)CCn3nc(-c4cn(C)c5ccccc45)cc32)cc1OC 1.64%
COc1cccc(C2C(C(=O)Nc3ccc(Cl)cc3)=C(C)Nc3c(C(=O)Nc4ccccc4)cnn32)c1OC (stereo not given) -11.1%
CC1(C(=O)NC2CCCCC2)Cc2ccccc2C(=O)N1Cc1ccc(Cl)cc1 (stereo not given) 25.2%
Cn1c(=O)c2c(nc(SCC(=O)Nc3ccc(F)cc3F)n2Cc2ccccc2)n(C)c1=O 2.55%
Cc1ccc(NC(=O)CN2Cc3ccccc3C2=O)c(C)c1 5.19%
CCOC(=O)c1cccc(NC(=O)CCS(=O)(=O)c2ccc(Br)s2)c1 -11.2%
COc1ccc(NC(=O)c2cc(-c3ccc4c(c3)OCO4)on2)c(OC)c1 -2.82%
Cc1cc(C)cc(NC(=O)c2sc3nc(-c4ccccc4)cn3c2C)c1 -24.3%
CC(=O)Nc1nonc1-c1nnc(SCc2ccc(F)cc2Cl)n1C -0.605%
CC1CCCCN1S(=O)(=O)c1ccc(F)c(C(=O)Nc2ccccc2C(F)(F)F)c1 (stereo not given) 7.64%
CCOC(=O)C1CCN(c2cc3c(cc2NC(=O)c2ccc(OC)c(OC)c2)n(C)c(=O)n3C)CC1 7.26%
COc1ccc(S(=O)(=O)N2CCN(Cc3nc4ccc(C)cc4o3)CC2)cc1OC 1.97%
Cc1cc(Cl)ccc1NS(=O)(=O)c1ccc2c(c1)CCN2S(C)(=O)=O -8.67%
Cc1cc(=O)n(Cc2cccc(Br)c2)c2c1c(C)nn2-c1ccccc1 0.495%
CCOc1cc2sc(N3CCC(C(=O)Nc4ccc(C(C)C)cc4)CC3)nc2cc1Br -5.17%
CCOc1ccc(NC(=O)CN(c2ccccc2OCC)S(=O)(=O)c2ccccc2)cc1 6.19%
